We go through 115 sequences from the BET-seq Pho4 binding data (Le et al. 2018).

This is one part of the list. Values were computed here from the reads of four pooled replicates and scatter widely.

The experiment addresses T1, Pho4 (S. cerevisiae) (UniProt P07270).
T1 sequence: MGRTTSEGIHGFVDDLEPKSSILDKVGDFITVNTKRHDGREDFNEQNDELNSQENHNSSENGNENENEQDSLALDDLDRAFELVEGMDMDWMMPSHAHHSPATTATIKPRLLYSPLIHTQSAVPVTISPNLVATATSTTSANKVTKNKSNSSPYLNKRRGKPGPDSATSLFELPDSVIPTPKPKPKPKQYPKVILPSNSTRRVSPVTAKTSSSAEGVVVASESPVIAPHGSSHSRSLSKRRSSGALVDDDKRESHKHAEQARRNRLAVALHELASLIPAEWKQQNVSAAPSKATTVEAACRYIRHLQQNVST
Description: relative binding free energy (BET-seq); higher = weaker binding. The settings on record: reference: library average.
For CTGGGCACGTGGGAGC, the “relative binding free energy” value is -0.31 kcal/mol.
To CGAGTCACGTGGAGTG belongs 0.07 kcal/mol; to TAGGACACGTGGGTTC, -0.06 kcal/mol.
To AATGTCACGTGGAATT belongs 0.18 kcal/mol; to CGGGTCACGTGGACAG, 0.18 kcal/mol; to TATTACACGTGGCTGT, 0 kcal/mol.
The same measure for AGTTTCACGTGGTTGT: 0.22 kcal/mol; for CTGGGCACGTGTTGTG: -0.17 kcal/mol; for GGGGGCACGTGCCGGT: -0.29 kcal/mol.
For ATAAGCACGTGATTAT, the “relative binding free energy” value is -0.03 kcal/mol.
For TCATTCACGTGAGAGG, the “relative binding free energy” value turned out to be 0.31 kcal/mol.
To TTGTGCACGTGCAGTC belongs -0.02 kcal/mol.
The same measure for GGTTTCACGTGCGGCT: 0.2 kcal/mol; for TAGAGCACGTGCGGGG: -0.12 kcal/mol.
Regarding CGTTGCACGTGACGTG, the “relative binding free energy” value stood at 0.08 kcal/mol.
For TTGTGCACGTGACTAT, the “relative binding free energy” value came out at 0.1 kcal/mol.
The same measure for TGGGTCACGTGTTACA: 0.16 kcal/mol; for AATGTCACGTGGTATC: -0.06 kcal/mol.
The same measure for TGTCTCACGTGATTAT: 0.22 kcal/mol.
As to TTGTGCACGTGAAGAA, the “relative binding free energy” value is 0.26 kcal/mol.
The same measure for CGTTGCACGTGGTGCA: -0.14 kcal/mol; for AGTTCCACGTGGAGGA: 0.11 kcal/mol; for TGTTACACGTGATCGG: 0.25 kcal/mol.
To ATGTTCACGTGGGTAA belongs 0.19 kcal/mol; to AATTTCACGTGGGGTG, 0.16 kcal/mol.
The same measure for TCTTGCACGTGTAATT: 0.03 kcal/mol; for ATCGACACGTGTGGTG: 0.03 kcal/mol.
As to GGATGCACGTGGGAAG, the “relative binding free energy” value worked out at 0.03 kcal/mol.
With AGTATCACGTGCTATG, the “relative binding free energy” value was 0.02 kcal/mol.
Regarding GGCGACACGTGTGGGG, the “relative binding free energy” value stood at 0.1 kcal/mol.
AATCGCACGTGCGGGG: the “relative binding free energy” value is -0.03 kcal/mol.
Take TTGTCCACGTGTGGTT: the “relative binding free energy” value was found to be 0.1 kcal/mol.
To TAGGGCACGTGCGGCA belongs -0.21 kcal/mol.
To ATTTTCACGTGGGGTA belongs 0.13 kcal/mol.
Consider TCGTTCACGTGTGCGT, for which the “relative binding free energy” value amounted to 0.27 kcal/mol.
The same measure for TGTGACACGTGACTTT: 0.14 kcal/mol; for GGCAGCACGTGATGGG: -0.01 kcal/mol.
For the sequence ATATCCACGTGAGGTG, the “relative binding free energy” value is 0.14 kcal/mol.
The same measure for TTCTTCACGTGAAAGG: 0.55 kcal/mol.
The same measure for GGCGGCACGTGTTGGA: -0.06 kcal/mol; for CGTTACACGTGACGGT: 0.27 kcal/mol.
With TGTTTCACGTGGCGGT, the “relative binding free energy” value was determined as 0.3 kcal/mol.
The same measure for AGATTCACGTGGGCTG: 0.05 kcal/mol.
Regarding GGATTCACGTGATGGC, the “relative binding free energy” value is 0.4 kcal/mol.
To GGGCCCACGTGCGGTG belongs -0.13 kcal/mol.
The same measure for TTCATCACGTGTGGGC: 0.25 kcal/mol.
The same measure for CTGGTCACGTGTGAAG: 0.08 kcal/mol.
Turning to TGTTACACGTGTGCCG, the “relative binding free energy” value was 0.15 kcal/mol.
The same measure for ATTGTCACGTGGCTCG: -0.07 kcal/mol; for GAGAGCACGTGCGGGG: -0.15 kcal/mol; for AGATTCACGTGTTGGG: 0.32 kcal/mol.
The same measure for TTCGGCACGTGTCATG: 0.04 kcal/mol.
The same measure for AAACACACGTGGTGTG: -0.01 kcal/mol.
With TATAGCACGTGCTGGT, the “relative binding free energy” value is -0.13 kcal/mol.
Take GTGGCCACGTGGGCTA: the “relative binding free energy” value was -0.14 kcal/mol.
The same measure for TCGAGCACGTGATTGG: 0.11 kcal/mol.
In the case of AAATTCACGTGTGATT, the “relative binding free energy” value is 0.16 kcal/mol.
The same measure for TAGCACACGTGTGTGT: 0.09 kcal/mol; for AGGGTCACGTGTTCCG: 0.15 kcal/mol.
The same measure for TTGGGCACGTGTTGCA: -0.01 kcal/mol; for TTTTGCACGTGAGTCA: 0.22 kcal/mol; for GGTCGCACGTGTCGTT: 0.01 kcal/mol.
Turning to GACATCACGTGGTGTG, the “relative binding free energy” value is 0.08 kcal/mol.
Take AGGGACACGTGATTGT: the “relative binding free energy” value is 0.08 kcal/mol.
As for TTTGGCACGTGACGAT, the “relative binding free energy” value was -0.07 kcal/mol.
As for TTAGGCACGTGTCTTG, the “relative binding free energy” value was -0.22 kcal/mol.
To TTTGACACGTGACTAT belongs 0.15 kcal/mol.
The same measure for TGTGGCACGTGTCGAG: -0.02 kcal/mol; for AGGATCACGTGGATTT: 0.22 kcal/mol.
To CGGGTCACGTGAGATT belongs 0.47 kcal/mol; to TTAGGCACGTGGATAT, -0.1 kcal/mol; to TTAATCACGTGTCATA, 0.19 kcal/mol.
As to TCGTTCACGTGATCGG, the “relative binding free energy” value was 0.4 kcal/mol.
To AAGGACACGTGTGAAG belongs 0.19 kcal/mol.
The same measure for ACTATCACGTGATGGG: 0.2 kcal/mol; for TTGGACACGTGGGGAC: -0.08 kcal/mol; for TATTTCACGTGTGCCT: 0.18 kcal/mol.
For the sequence GGATCCACGTGGGTAG, the “relative binding free energy” value is -0.06 kcal/mol.
The same measure for TTTCTCACGTGGACTT: 0.32 kcal/mol; for TACGGCACGTGTTTAT: 0.02 kcal/mol; for ATGGGCACGTGTAATT: -0.12 kcal/mol.
The same measure for TTTTGCACGTGTTTTA: -0.01 kcal/mol; for AATGGCACGTGCTAGT: -0.01 kcal/mol.
On to GTGGGCACGTGAGTAT, for which the “relative binding free energy” value was 0.16 kcal/mol.
As for CAGTTCACGTGGATGG, the “relative binding free energy” value was 0.24 kcal/mol.
With ATGGTCACGTGGAACT, the “relative binding free energy” value is 0.24 kcal/mol.
As to CGTTGCACGTGTTGGA, the “relative binding free energy” value worked out at 0.03 kcal/mol.
Take GAGGTCACGTGTTTGG: the “relative binding free energy” value is 0.18 kcal/mol.
To TATTACACGTGGTAGT belongs 0.16 kcal/mol.
As to AATTCCACGTGTGTTT, the “relative binding free energy” value was found to be 0.12 kcal/mol.
To CTGCGCACGTGATTGT belongs 0.15 kcal/mol; to TTTTTCACGTGTGTTT, 0.27 kcal/mol.
The same measure for GTGGTCACGTGTGCAG: 0.04 kcal/mol; for TTGGGCACGTGTGTTC: 0.02 kcal/mol.
As for AGTGTCACGTGATGGC, the “relative binding free energy” value was 0.31 kcal/mol.
The same measure for GGGGGCACGTGGTCGA: -0.16 kcal/mol; for ATATGCACGTGGGCAG: -0.22 kcal/mol.
To TGAGACACGTGGGTCG belongs -0.2 kcal/mol.
The same measure for CGGGACACGTGTGAGT: 0.11 kcal/mol; for GTGGGCACGTGGCAGC: -0.13 kcal/mol.
For ATGTTCACGTGTGTAG, the “relative binding free energy” value came to 0.27 kcal/mol.
In the case of TGTTGCACGTGCCGTA, the “relative binding free energy” value was 0.02 kcal/mol.
To AAGTACACGTGTTAGG belongs 0.09 kcal/mol.
The same measure for AATGGCACGTGCGTTT: -0.21 kcal/mol.
The same measure for ACGTGCACGTGATAGG: 0.03 kcal/mol.
For the sequence CACGGCACGTGGGCGG, the “relative binding free energy” value is -0.24 kcal/mol.
To AGTGCCACGTGATTGT belongs -0.06 kcal/mol.
The same measure for TGGTTCACGTGCTTTA: 0.17 kcal/mol; for AGATGCACGTGTTGTG: -0.15 kcal/mol.
To TGTGACACGTGGGGGA belongs -0.08 kcal/mol.
Regarding TTGTACACGTGTTGAA, the “relative binding free energy” value came to 0.09 kcal/mol.
The same measure for GGTGTCACGTGGGCGC: 0 kcal/mol; for TGTGTCACGTGTAAAC: 0.12 kcal/mol; for AGCTTCACGTGGAAGT: 0.15 kcal/mol.
The same measure for AAGCTCACGTGGGTTA: 0.12 kcal/mol.
